Measured values published in PubChem BioAssay AID1347417 (National Center for Advancing Translational Sciences (NCATS), 2020).
Among all 120,000 compounds or so, about 5,300 (4.4%) were called active. Inconclusive results, whose numbers are uncertain, are shown with a selection of clear calls. Calls follow the shape of the dose curve; as a rule, active = well fitted inhibition curve with a large enough effect; inconclusive = small, poorly fitted or top-dose-only effect; inactive = no such curve, though single readings can be large or run the other way. Potencies beside an inconclusive call are fits to weak or partial responses and may not hold up.

assay: qHTS Primary assay for Inhibitors of Plasmodium falciparum Dd2 growth in vitro; also: nearly all actives have a fitted effect of over 65% in size; settings: P. falciparum Dd2 growth, SYBR Green, 72 h; series mostly up to 28.9 µM
Procedure, shortened: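 Readout: SYBR Green fluorescence, 485 nm excitation, 535 nm emission, after ~16 h lysis at 37C. Before that, Dd2-infected red cells (2.5% hematocrit) grew 72 h with compound, 29 uM top final concentration.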
Potency is read from the fitted curve at half-maximal effect; tags tell the direction and shape of the fitted curve.

SMILES	Potency
CC(C)NC(=O)C1CN(c2ccccc2)C(=O)N1 (stereo unspecified)	inactive
CCCN(C)c1nccnc1OC1CCN(C(=O)CC(C)C)C1 (stereo unspecified)	inconclusive: 12.6 µM [inhibitor, single point]
O=S(=O)(Cc1ccccc1F)N1CCCC(Cc2noc(C3CC3)n2)C1 (stereo unspecified)	inconclusive: 20 µM [inhibitor, single point]
COc1ccc(NC(=O)CSc2nc(-c3cccc(C)c3)[nH]c2-c2ccccc2)cc1OC	inconclusive: 11.2 µM [inhibitor, single point]
O=C(NCc1ccccc1)c1ccc(N2CC3CC(C2)[C@H]2CCCC(=O)N2C3)nc1 (stereo partly specified)	inconclusive: 20 µM [inhibitor, single point]
CC1=C(C(=O)Nc2ccc(Cl)cc2)C(c2ccccc2)n2ncc(C(=O)Nc3ccccc3)c2N1 (stereo unspecified)	inconclusive: 10 µM [inhibitor, single point]
Cc1c(Cl)cccc1NC(=O)CCOc1ccccc1	inactive
COc1cccc(-c2ccccc2NC(=O)C2CCN(Cc3cc(OC)ccc3O)CC2)c1	active: 2.24 µM
Cc1ccccc1CN1CC(Oc2cccc(C(=O)NCC3CC3)c2)C1	inconclusive: 1.58 µM [inhibitor, partial curve, poor fit]
Cc1cccn2c(=O)c3cc(C#N)c(=O)n(-c4nnc(SCc5ccc(Cl)cc5)s4)c3nc12	active: 8.91 µM
Cc1cccc(C)c1NC(=O)CS(=O)(=O)c1nc(-c2ccc(Cl)cc2)cn1-c1ccccc1	inconclusive: 17.8 µM [inhibitor, single point]
CCC(=O)C1=C(c2ccc(C)cc2)N(C(=O)CC)n2c(nnc2C2CCCCC2)S1	inconclusive: 1.26 µM [inhibitor, partial curve, poor fit]
COc1ccc(C(=O)N2CC[C@H]3CC(=O)N(CCc4cnc[nH]4)CC[C@H]3C2)cc1	inactive
O=S(=O)(NC[C@H]1OC[C@@H](NCc2ccccc2F)[C@@H]1O)c1ccccc1	inconclusive: 8.91 µM [inhibitor, single point]
COc1ccc2c(c1)CCN=C2C[C@H]1CN(C(=O)NC(C)C)CC[C@H]1CC(=O)O	inconclusive: 0.282 µM [inhibitor, full curve, poor fit]
O=C(N[C@H]1C[C@H]2C(=O)NC[C@@H](CCC(=O)N3CCN(c4ccccc4)CC3)N2C1)C1CC1	inconclusive: 0.398 µM [inhibitor, full curve, poor fit]
COCCNC(=O)C1c2ccccc2C(=O)N(C2CCCC2)C12CCCCC2 (stereo unspecified)	inactive
CC(=O)N1CCc2cc(Br)cc(S(=O)(=O)CCC(=O)N3CCN(c4ccccc4Cl)CC3)c21	inconclusive: 3.55 µM [inhibitor, single point]
Cc1ccc(NC(=O)c2ccc(CN3C(=O)NC4(CCOCC4)C3=O)cc2)cc1C	inconclusive: 14.1 µM [inhibitor, partial curve, poor fit]
COc1cccc(C(=O)N2CC3(Cc4ccccc4N([S+](C)(=O)[O-])C3)C2)c1	inconclusive: 7.94 µM [inhibitor, partial curve, poor fit]
COc1ccccc1C(=O)NCc1nnc2ccc(-c3ccc(C)cc3)nn12	inconclusive: 0.355 µM [inhibitor, full curve]
CC(C)Sc1ncc(Cl)c(C(=O)Nc2ccc(S(=O)(=O)N3CCCCC3)cc2)n1	inconclusive: 11.2 µM [inhibitor, single point]

SMILES	Potency
CSCCC(=O)N1CCC(C2CCN(c3ncccn3)CC2)C1 (stereo unspecified)	inactive
Cc1ccc(CNC(=O)CSc2nc3n[nH]c(C)c3c(=N)n2-c2ccccc2Cl)cc1	active: 3.55 µM
CCn1ccc(C(=O)N2CCC(Oc3ccccc3-c3nc(C4CCOCC4)no3)C2)n1 (stereo unspecified)	inactive
CCC(=O)N1C[C@@H]2CCCN3CCC[C@@H]([C@H]23)[C@H]1CCCC(=O)NCC1CC1	inactive
c1coc(CN2CCC(NC3CCCN(c4nc5ccccc5s4)C3)CC2)c1 (stereo unspecified)	inconclusive: 8.91 µM [inhibitor, partial curve]
CCO[C@H]1CN(C(=O)COc2ccc(Cl)cc2C)C[C@@H]1O	inactive
Cc1cc(C)n(-c2nc3cc(Cl)ccc3nc2N2CCN(c3ccccc3F)CC2)n1	inconclusive: 1.78 µM [inhibitor, full curve, poor fit]
O=C1N(c2ccccc2)c2ccccc2C12CCN(CC1CCCCC1)C2 (stereo unspecified)	inconclusive: 11.2 µM [inhibitor, single point]
CSCc1noc(Cc2c(C)nn(-c3ccccc3)c2C)n1	inconclusive: 0.178 µM [inhibitor, full curve]
CC(=O)N1Cc2ccccc2OC2(CCN(C(=O)Cc3ccc(O)cc3)CC2)C1	inactive
O=C1Nc2ccccc2OCC12CCN(CC1CC1)CC2	inconclusive: 12.6 µM [inhibitor, partial curve]
CCOCCCn1c(SCC(=O)Nc2ccccc2Cl)nc2c(oc3ccccc32)c1=O	inconclusive: 17.8 µM [inhibitor, single point]
OCc1cccc(-c2cc(C3=CCOCC3)c3cncn3c2)c1	inactive
CC(C)CCN1CCC(C2CCN(Cc3cccnc3)CC2)C1 (stereo unspecified)	inconclusive: 2 µM [inhibitor, partial curve, poor fit]
CCOc1ccc2ncc3c(-c4cccc(OC)c4)nn(-c4ccccc4)c3c2c1	inactive
Cc1ccc2occ(CC(=O)Nc3ccc(S(=O)(=O)N4CCC(C)CC4)cc3)c2c1	inconclusive: 15.8 µM [inhibitor, single point]
CCOc1ccc(CN2CCN(C3CCN(C(C)C)CC3)CC2CCO)cc1 (stereo unspecified)	inactive
O=C(NCc1cccs1)c1cccc2c1CCN2C(=O)c1ccc(F)cc1	inconclusive: 15.8 µM [inhibitor, single point]
Cc1ccc(S(=O)(=O)c2nnn3c2nc(NC2CCCC2)c2ccccc23)cc1C	inconclusive: 11.2 µM [inhibitor, single point]
O=S(=O)(c1ccccc1)c1nnn2c1nc(NCc1ccccc1)c1cc(Cl)ccc12	inconclusive: 4.47 µM [inhibitor, partial curve, poor fit]
CCCN1CCN(C(=O)c2ccc3c(c2)n(Cc2ccc(F)cc2)c(=O)c2ccnn23)CC1	inactive
O=C(Nc1cccc(F)c1)c1oc2ccccc2c1NC(=O)C12CC3CC(CC(C3)C1)C2	inconclusive: 10 µM [inhibitor, single point]

SMILES	Potency
COc1ccc(S(=O)(=O)N2CCC(C(=O)Nc3cc(C(F)(F)F)ccc3Cl)CC2)cc1	inconclusive: 1.78 µM [inhibitor, full curve, poor fit]
CN(CCc1ccccc1)Cc1cc(C(=O)N2CCOc3ccccc3C2)no1	inconclusive: 11.2 µM [inhibitor, single point]
Cc1nc(N2CCC(NC(=O)CC3CCCCC3)CC2)cc(C(F)(F)F)n1	inconclusive: 12.6 µM [inhibitor, single point]
CCCNC(=O)OC[C@H]1C[C@@H]2CCN1C[C@@H]2c1cc(-c2ccc3ccccc3c2)nn1C	inconclusive: 31.6 µM [inhibitor, single point]
O=C(Nc1ccccc1Oc1cccnc1)C1CCCN1C(=O)CC1CCCC1 (stereo unspecified)	inactive
COC1C(=O)N(c2cccc(F)c2)C12CCN(C(=O)c1cnc(C)cn1)CC2 (stereo unspecified)	inactive
COc1ccc(C)cc1Nc1ncnc2c1c(-c1ccccc1)cn2-c1ccc(C)cc1	inconclusive: 15.8 µM [inhibitor, single point]
CCOc1cc(-c2ccc(OC(=O)c3ccccc3)c(OC)c2)cc(=O)c2c(C)oc(C)c12	inconclusive: 10 µM [inhibitor, single point]
Fc1ccc(CN2CCC(Oc3ccccc3-c3nc(-c4cnccn4)no3)C2)cc1F (stereo unspecified)	inconclusive: 2.51 µM [inhibitor, partial curve, poor fit]
Cc1cnc(-c2cccnc2)n1C1CCCN(C(=O)C2(c3ccccc3)CC2)C1 (stereo unspecified)	inconclusive: 6.31 µM [inhibitor, partial curve, poor fit]
COc1cccc(Cc2nc3ccccc3nc2SCC(=O)Nc2cc(OC)ccc2OC)c1	inconclusive: 7.94 µM [inhibitor, partial curve, poor fit]
Cc1ccc(C(=O)N2CCCN(C)c3ccccc32)cc1C	inconclusive: 17.8 µM [inhibitor, single point]
CCC(C)NC(=O)Cn1c(=O)n(Cc2ccc(C(=O)NCc3ccc(C)cc3)cc2)c(=O)c2ccccc21 (stereo unspecified)	inconclusive: 17.8 µM [inhibitor, single point]
O=C(C1CCOCC1)N1CCCC2(CN[S+](=O)([O-])c3cccnc3O2)C1 (stereo unspecified)	inactive
COc1ccccc1-c1nc(-c2nnn3c2COC(c2ccc(Cl)cc2)C3)no1 (stereo unspecified)	inconclusive: 5.62 µM [inhibitor, partial curve, poor fit]
COc1ccccc1C(=O)N1CCCC1c1noc(COc2ccc(F)cc2)n1 (stereo unspecified)	inactive
COc1ccc(C(=O)N[C@@H]2CCC[C@@H]2C(=O)NC2CCCCCC2)cn1	inactive
CCC(C)Oc1ccccc1CNc1ncnc2c1c(C)nn2C (stereo unspecified)	inactive
O=c1[nH]c(N2CCOCC2)nc2c1CCN(Cc1ccc(Cl)cc1F)CC2	active: 0.316 µM
CC(C)CN(CC(C)C)CC(O)Cn1cc(/C=C/C(=O)c2ccccc2)c2ccccc21 (stereo unspecified)	active: 2.51 µM
CNC(=O)N1CCC(N2C(=O)C3(CCCCC3)C2c2ccccc2)CC1 (stereo unspecified)	inconclusive: 11.2 µM [inhibitor, single point]
CCOc1ccc(S(=O)(=O)Nc2ccc3oc4c(c3c2)CC(C)CC4)cc1 (stereo unspecified)	inconclusive: 0.0079 µM [inhibitor, full curve, poor fit]
